# Measured values taken from paper PMC4081100.
# The entries are a selection whose mix differs from that of the whole data set. For some assays here: At the low end of the ranking the order means little. The list shows a part of the results. For some assays here: The source does not settle which construct or isoform was used.
# Key:
# Assay in all cases: universal protein binding microarray (PBM)
# Settings in all cases: transcription factors of Arabidopsis thaliana; high values mean tight binding; most listed sequences are background and not binding sites; double strand, one strand shown
# [1] = biological target: T1, GST-ANAC092(1-176) (UniProt Q9FKA0)
# T1 sequence: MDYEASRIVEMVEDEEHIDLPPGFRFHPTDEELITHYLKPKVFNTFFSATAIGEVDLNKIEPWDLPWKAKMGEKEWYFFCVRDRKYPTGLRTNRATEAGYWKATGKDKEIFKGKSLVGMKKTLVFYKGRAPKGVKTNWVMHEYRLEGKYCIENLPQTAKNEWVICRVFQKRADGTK
# [2] = biological target: GST-NTL6(1-168) (UniProt Q9SCK6)
# [3] = biological target: T2, GST-ANAC019 NAC domain (UniProt Q9C932)
# T2 sequence: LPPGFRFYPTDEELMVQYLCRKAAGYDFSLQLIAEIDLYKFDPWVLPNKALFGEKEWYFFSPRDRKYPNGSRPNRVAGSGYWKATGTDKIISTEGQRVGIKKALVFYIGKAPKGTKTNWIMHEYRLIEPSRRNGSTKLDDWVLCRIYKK
# [4] = biological target: T3, GST-NAP(1-166) (UniProt O49255)
# T3 sequence: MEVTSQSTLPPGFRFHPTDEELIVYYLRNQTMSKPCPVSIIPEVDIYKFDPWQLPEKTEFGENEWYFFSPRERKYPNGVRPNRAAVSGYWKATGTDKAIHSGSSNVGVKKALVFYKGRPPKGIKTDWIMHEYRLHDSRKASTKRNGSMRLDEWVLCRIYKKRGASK
# [5] = biological target: T4, GST-NTL8 NAC domain (UniProt Q9XIN7)
# T4 sequence: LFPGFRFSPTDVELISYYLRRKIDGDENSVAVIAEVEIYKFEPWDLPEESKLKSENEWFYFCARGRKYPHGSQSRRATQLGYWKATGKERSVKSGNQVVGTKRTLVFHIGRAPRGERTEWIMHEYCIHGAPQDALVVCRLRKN
# [6] = biological target: T5, GST-SND1(1-203) (UniProt Q9LPI7)
# T5 sequence: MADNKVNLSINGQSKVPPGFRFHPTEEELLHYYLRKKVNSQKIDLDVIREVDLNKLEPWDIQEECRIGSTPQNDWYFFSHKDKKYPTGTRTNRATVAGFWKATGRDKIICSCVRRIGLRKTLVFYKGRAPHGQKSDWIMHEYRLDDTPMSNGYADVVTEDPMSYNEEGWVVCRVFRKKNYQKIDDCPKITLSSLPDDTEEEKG
# [7] = biological target: T6, GST-VND3 NAC domain (UniProt Q9FH59)
# T6 sequence: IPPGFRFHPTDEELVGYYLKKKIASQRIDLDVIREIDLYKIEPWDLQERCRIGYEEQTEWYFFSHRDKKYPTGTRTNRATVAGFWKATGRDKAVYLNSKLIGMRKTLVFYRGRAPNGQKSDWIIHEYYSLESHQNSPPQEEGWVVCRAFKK
# [8] = biological target: T7, GST-VND7 NAC domain (UniProt Q9C8W9)
# T7 sequence: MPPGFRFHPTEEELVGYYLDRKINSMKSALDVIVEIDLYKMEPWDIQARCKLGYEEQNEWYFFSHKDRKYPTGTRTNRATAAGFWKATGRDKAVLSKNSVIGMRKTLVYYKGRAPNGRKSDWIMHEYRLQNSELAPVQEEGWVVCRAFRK
# [9] = biological target: T8, GST-VOZ2 (Arabidopsis thaliana) (UniProt Q9SLB9)
# T8 sequence: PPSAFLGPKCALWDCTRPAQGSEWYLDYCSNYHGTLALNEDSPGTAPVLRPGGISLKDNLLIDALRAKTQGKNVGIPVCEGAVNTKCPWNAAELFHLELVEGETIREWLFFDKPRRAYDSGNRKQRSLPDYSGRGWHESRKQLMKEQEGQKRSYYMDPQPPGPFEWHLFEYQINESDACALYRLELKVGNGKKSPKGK
# [10] = biological target: GST-WRKY1(266-371) (UniProt Q9SI37)
# [11] = biological target: T9, GST-ANAC055(1-171) (UniProt Q9LDY8)
# T9 sequence: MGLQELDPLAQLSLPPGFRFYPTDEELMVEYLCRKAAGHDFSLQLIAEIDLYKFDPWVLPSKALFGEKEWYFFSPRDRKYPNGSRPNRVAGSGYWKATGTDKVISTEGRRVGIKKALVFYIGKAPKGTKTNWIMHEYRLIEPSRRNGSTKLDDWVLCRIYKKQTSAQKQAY
# [12] = biological target: T10, GST-ATAF1 NAC domain (UniProt Q39013)
# T10 sequence: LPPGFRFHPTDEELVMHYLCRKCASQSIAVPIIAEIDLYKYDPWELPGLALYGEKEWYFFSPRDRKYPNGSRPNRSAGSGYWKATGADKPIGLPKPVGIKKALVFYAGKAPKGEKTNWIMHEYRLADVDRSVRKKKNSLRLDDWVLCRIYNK
# [13] = biological target: T11, GST-ANAC092(1-285) full length (UniProt Q9FKA0)
# T11 sequence: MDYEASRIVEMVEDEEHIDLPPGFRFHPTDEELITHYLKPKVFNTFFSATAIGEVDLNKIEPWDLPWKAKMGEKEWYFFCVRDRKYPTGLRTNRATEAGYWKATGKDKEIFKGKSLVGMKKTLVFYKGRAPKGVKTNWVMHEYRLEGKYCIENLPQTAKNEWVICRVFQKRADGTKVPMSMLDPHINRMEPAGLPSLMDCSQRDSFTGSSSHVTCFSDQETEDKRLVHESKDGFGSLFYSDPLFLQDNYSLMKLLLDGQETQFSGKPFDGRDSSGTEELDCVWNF
# [14] = biological target: T12, GST-NST2(1-184) (UniProt Q9M274)
# T12 sequence: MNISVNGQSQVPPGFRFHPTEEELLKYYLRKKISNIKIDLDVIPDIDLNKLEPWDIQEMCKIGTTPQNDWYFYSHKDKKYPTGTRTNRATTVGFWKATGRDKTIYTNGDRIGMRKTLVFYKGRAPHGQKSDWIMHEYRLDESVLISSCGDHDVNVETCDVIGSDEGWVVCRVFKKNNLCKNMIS
Sequence,binding signal [1] [E-score],binding signal [2] [E-score],binding signal [3] [E-score],binding signal [4] [E-score],binding signal [5] [E-score],binding signal [6] [E-score],binding signal [7] [E-score],binding signal [8] [E-score],binding signal [9] [E-score],binding signal [10] [E-score],binding signal [11] [E-score],binding signal [12] [E-score],binding signal [13] [E-score],binding signal [14] [E-score]
AATTGACT,-7e-05,0.0713,0.0203,-0.112,0.0197,0.0673,0.0199,-0.0374,0.0443,0.46,–,–,–,–
AGGGGTCA,-0.114,0.0129,-0.094,-0.0564,0.0266,-0.042,-0.0713,-0.188,0.0777,0.415,-0.17,-0.188,-0.00792,-0.191
GCGAGTCA,-0.0133,-0.0496,0.0345,-0.093,0.034,-0.0337,-0.0278,-0.026,-0.103,0.414,-0.0343,0.0411,-0.085,-0.0468
CTCGTCAA,-0.00834,-0.0323,0.0225,–,-0.0536,0.0408,0.0246,0.0481,0.0118,0.424,0.0602,–,-0.0191,0.0192
CTGACCGA,-0.198,-0.224,-0.0026,-0.186,-0.144,-0.19,-0.121,-0.109,-0.178,0.439,-0.222,-0.232,-0.152,-0.196
AGGTCAAC,-0.00624,-0.0571,-0.0447,-0.0814,0.0726,-0.0285,-0.115,-0.0694,-0.0449,0.492,0.0328,–,0.0146,-0.0323
GGTCAACA,0.0365,-0.0553,-0.107,-0.0432,-0.118,-0.03,-0.102,-0.139,0.019,0.493,-0.0249,0.0175,0.00353,0.0705
AGGTCAGA,-0.0113,–,0.0194,-0.0842,0.0346,-0.109,-0.0583,-0.142,0.0759,0.449,-0.0771,-0.0236,-0.0821,-0.026
ACGTAATC,–,0.0901,–,0.443,0.0332,0.424,0.427,0.44,0.043,-0.0937,–,–,–,–
GGTCAACC,–,-0.0992,–,-0.00538,-0.0208,-0.122,-0.0416,-0.0251,-0.0584,0.491,-0.0325,–,–,-0.159
AGTCAAGA,0.0103,–,0.00317,-0.0346,0.0301,-0.084,0.0163,-0.0386,-0.0948,0.471,-0.0859,-0.0459,-0.00022,0.00773
TGACTAAA,0.0255,0.0547,–,-0.0767,-0.0621,-0.0391,0.0682,0.0902,0.00633,0.42,0.033,0.00799,0.0456,–
AGGTTACC,–,-0.0131,–,0.041,0.437,-0.13,-0.102,-0.0945,-0.0749,-0.169,0.0441,-0.00453,–,-0.0964
